The supplement of paper PMC10185492
This is one part of the list. These are enrichments in a pooled selection; single values are uncertain.

Tested on: SARS-CoV-2 3CLpro (nsp5)
Experiment: substrate phage enrichment score (protease-eluted vs HEPES control, +1 offset) (ratio); higher = better cleaved substrate
Conditions: selection round: 4; protease elution time: 15 min
Procedure: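 Random heptapeptide substrate phage display (M13 pIII fusion, heptapeptide between an N-terminal biotinylated AviTag GLNDIFEAQKIEWHE and pIII; phages immobilised on streptavidin) eluted by cleavage with 50 nM protease in 20 mM HEPES at 37 °C. Selected phages were NGS sequenced, and the enrichment score is (reads in protease sample + 1)/(reads in HEPES blank-selection control + 1).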

Substance	substrate phage enrichment score
STPDVVT	3.4
SESAKYG	15.5
RIAEKNQ	> 30
TWMPKNG	17.5
ETTGCPR	1.19
VHQGRQN	0.107
HSCSVNS	0.6
VDTLGGA	> 21
CRAAHHH	0.514
SRTMPRV	2.29
QCTFKRD	2
AYPKARP	0.833
SSCKAGV	> 24
HIGWSLE	5.29
AVLRQGT	> 26
RVHLQCG	29
QYFGCVP	4
AGMRKTW	0.846
QTFQLDS	2
TWGTHCQ	3.8
AYTKNNP	> 23
VLRPHII	0.625
PAQPLSY	> 28
IRGPSAA	> 29

Substance	substrate phage enrichment score
DLKRKTE	1.5
HPPRYLN	> 21
EYPFTVP	3
SQAGPSG	1.59
KHIKGDR	2.74
PNCKVTA	16.5
SNVNGDE	2.12
HRTENIR	1.44
KEVSPQT	0.429
CECPTKS	> 21
ALCTVRC	> 28
AQGAMRR	0.273
ADCQSSK	3
NKKPVSL	> 21
SSSKRGP	1.21
DATRAQT	> 94
SKSSRLQ	> 29
IGCPVEP	1
LCTVPRQ	> 266
DAERFCR	> 60
TGTNWHR	8.67
VTLQSMN	> 26
RSHRPQY	1.31
VEWSTGR	> 29

Substance	substrate phage enrichment score
HKNHNCR	13.5
HSLRFRC	7.75
SGAAAHH	0.692
CPRQILS	> 35
NCYRWLW	0.0755
ALPSQPI	2.83
LEAAHHH	0.24
PAAAHHH	0.707
ACDLCKC	> 42
PGADDHI	7.38
VDGGLER	1.21
GTHCMEP	> 43
RTPATIH	2.5
CQAGTSR	0.524
AQLGPST	> 31
ERIEIED	22
GAPELHL	0.692
NVQPCVH	1.12
GCPLRHQ	15
RETGTAY	0.145
ERQTAPN	> 33
ATRILEQ	> 43
SFAQPGK	> 24
YFQGGSA	1.13

Substance	substrate phage enrichment score
LKASVLQ	> 85
EHLRGRA	0.1
CRNHALS	3.29
EITVEPN	1.11
SARTNLQ	> 24
TNDKVCG	> 22
PDVTGLD	> 28
KATTRLH	> 58
LGANTLQ	> 29
SGSSRGM	2.94
TPGPQRS	2.29
VVQEQSP	7.67
VCSAWSG	3.3
ISQNECR	1.14
CGPSWEV	18
SKEPNEK	> 34
KYGTHKH	0.571
SNGMRYR	1.73
VNRTECW	4.86
PTTDGVG	1.55
VAVAPRT	0.846
TREPMQR	14
CEDLLTR	> 22
VSEPRVD	0.0789

Substance	substrate phage enrichment score
SAAAHHY	1.88
PCARRSM	> 82
QAVRCLH	0.833
VCLQAVC	102
SSHNHHH	1.85
CHGTKLW	> 33
KRMETCG	53.5
YKLNSPG	> 44
TLTGGAR	0.472
NTRSGMT	> 38
ADFQGGS	1.76
WRPARLQ	> 21
LHTGEVS	> 41
CALNHGQ	> 25
DSHVSMQ	> 31
REDHSRQ	> 29
ATERRNT	0.677
CPHNGLG	0.13
VVVRGLR	2.09
DCSQGTN	1.67
RPINTVA	7.67
PPLSPLR	2.08
FPSRATG	0.1
TKAAHHH	1.36

Substance	substrate phage enrichment score
CRANSAL	14.5
SGSAAAH	0.167
QHDGQDY	11.5
RNEKMRS	> 44
TTPGTFV	1.9
WVSKGCC	> 24
TRSHPSE	1.13
REAAHHH	0.878
SYRNGER	10.4
CPLNTGG	> 25
GLAAHHH	0.667
VSDEGDK	1.44
ATAAHHH	0.741
NSPSDAR	3.8
CRVLVCR	> 24
RSREAGK	6
VNPICSC	> 46
TNSPEHI	> 23
FDPWDVN	24.5
KTRTNVG	1.89
DCTPDSK	0.8
CTVQKRD	4.38
KCLTGIV	> 21
RKTPTTT	3.22

Substance	substrate phage enrichment score
CGRYKRI	0.04
RTFTSYP	1.67
SESSPPR	> 46
TGCRTVP	0.167
VNELRSR	6.18
AEASRPL	0.0526
YSENRSR	0.538
CGHAHHH	13.7
LWSCGTA	4.5
NRDSYMR	> 23
VCANETG	0.389
SNWLEAA	> 51
RRSTKLQ	6.67
ICGPASA	21.2
AAVYNQG	> 25
YPNKPPE	> 21
KTFCDLQ	6.29
MHPEWGA	1
LNVPHKD	0.31
PRERGSP	13
RNQTEAR	0.867
SETLQIR	> 31
LHESSQG	> 22
RTWDANT	2

Substance	substrate phage enrichment score
PTGINRW	0.556
AVSKYQY	1.7
KCKCTLQ	> 118
HGSAQLQ	> 21
IKYDLKQ	1.63
SRTLTGN	1.6
ERLNNCR	0.0637
SPVKVGG	> 33
QENVDTH	0.0638
KQLDSCR	> 246
AAAKLQS	110
RNFQGGS	1.7
NTRGLTG	27
CHHEQTR	0.923
AHCTRHS	5.2
SPLIWDH	> 30
TVLQAHG	198
VQLSHPK	0.8
ASRPGIF	5.29
TRRTTKC	1.9
GAAAHHQ	1.08
HETDSLI	> 22
LKSSDLQ	28
TAGLPST	1.65

Substance	substrate phage enrichment score
TEQAERL	2.04
GCRLQSG	> 162
PHVSVMK	2.43
RHPYNAL	> 47
PWGTNCQ	> 30
QRQSHSI	0.68
TPPVRLQ	8.05
PQDLTGR	3
VPTTDRL	3
KQRTWQH	> 29
PTTPFNN	> 46
NYPGLMW	> 21
MSPRSNF	1.75
RPSCRDR	4.91
RNHVTLD	10
CLQPIKG	6.23
ECDVQWY	1.71
KTRRCFQ	13.5
QTRLQCS	> 32
PDGFKAE	> 28
STVWEAR	0.353
ETHHPHH	0.882
VQDNTAA	0.0186
RKNDGVR	> 24

Substance	substrate phage enrichment score
AAPCTTR	2.67
HSQAVTS	0.5
YGAAHHH	0.412
AKLQSNH	> 27
PRRPTIH	1.2
YARLPAT	> 21
SAPRWGP	1.44
KGSLNDR	3
WDTGPTD	0.294
TPSALKS	0.938
TPTPGCV	0.219
SGGVFFR	> 24
CNECAEW	1.3
YRRGPAL	0.583
NMATTLQ	> 37
AYAPIHT	> 28
SGGRLPC	0.0938
SPLGSFQ	> 33
